In PubChem BioAssay AID686979 (National Center for Advancing Translational Sciences (NCATS), 2013):
The whole screen tested about 420,000 compounds, of which about 50,000 (12%) were called active. The inconclusive results got no clear call from the source; some entries with a clear call stand among them for comparison. The call rests on the fitted dose curve; in most records, active means well fitted inhibition curve with a large enough effect; inconclusive means small, poorly fitted or top-dose-only effect; inactive means flat fitted curve, though single readings scatter. Where the call is inconclusive, the potency comes from a doubtful curve fit.

Assay: qHTS for Inhibitors of human tyrosyl-DNA phosphodiesterase 1 (TDP1): qHTS in cells in presence of CPT; further: nearly all actives have a fitted effect of over 55% in size
Settings: chicken DT40 Tdp1-/-;hTDP1 cells + 20 nM CPT, ATP luminescence, 48 h; activity change, negative = growth inhibition: at 46.2 µM (top of the series) unless noted
Method in brief: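 Chicken DT40 Tdp1-/- cells complemented with human TDP1, 400 cells/well, exposed to compounds plus 20 nM camptothecin for at least 48 h at 37 C; viability read as ATP content by CellTiter-Glo luminescence.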
On the % scale 0 is the no-effect control and ±100 the full control effect; potency means the concentration at half of the fitted maximal effect; tags describe the fitted curve by direction and shape.

SMILES	Potency	activity change, negative = growth inhibition
O=C(OCC(=O)N1CCN(c2ccccc2)CC1)c1cc(Cl)ccc1[N+](=O)[O-]	inactive	
Cc1ccc(CN2CCc3nc(N4CCN(c5ccccc5F)CC4)ncc3C2)s1	inactive	
CC1CCc2[nH]c3ccc(C(=O)NCC4CCCO4)cc3c2C1 (configuration not stated)	inconclusive: 29.1 µM [inhibitor, single point]	
Cc1nnc2n1N=C(c1ccc(OC(F)F)cc1)C(C)S2 (configuration not stated)	inactive	
Cn1nc(CC(=O)NC2CCCCCC2)c2ccccc2c1=O	active: 18.4 µM	
Cc1noc(C)c1C(=O)OCC(=O)Nc1ccccc1Oc1ccccc1		inconclusive: -30.7% [inhibitor]
CCS(=O)(=O)N1CCC(N2CCC(C)CC2)CC1	inactive	
Cc1ccc(NC(=O)C2CCCN2S(=O)(=O)c2cccc3nsnc23)c(Br)c1 (configuration not stated)	inconclusive: 29.1 µM [inhibitor, single point]	
CC(C)=CCC/C(C)=C/CC/C(C)=C/CCC1(C)CCc2cc(O)ccc2O1 (configuration not stated)	inconclusive: 15.8 µM [inhibitor, partial curve]	
O=C(Nc1nc2ccccc2n1CCN1CCCCC1)C1CCCCC1	inconclusive: 20.6 µM [inhibitor, single point]	
CCOc1ccc(NC(=S)N2CCCN(Cc3cc(C)ccc3C)C2)cc1	inconclusive: 29.1 µM [inhibitor, single point]	
Cc1ccc2cccc(NC(=S)NC(=O)c3ccccc3)c2n1	active: 18.4 µM	
CCSc1nc2c(c(=O)[nH]c(=O)n2C)n1C/C=C(/C)Cl	inactive	
Cc1ccc2oc(=O)c3cc(C(=O)NCc4ccc(Cl)cc4)sc3c2c1	inconclusive: 14.6 µM [inhibitor, partial curve]	
CCc1c(C)nc2ncnn2c1N1CCCC(C(=O)NCCc2ccccc2)C1 (configuration not stated)	inconclusive: 18.4 µM [inhibitor, partial curve]	
O=C(NC1CCCC1)C(c1ccc(O)cc1)N(CC1CCCO1)C(=O)C1COc2ccccc2O1 (configuration not stated)	inconclusive: 29.1 µM [inhibitor, single point]	
CCOc1ccc(NC(=S)NCCCc2ccccc2)cc1	inconclusive: 29.1 µM [inhibitor, single point]	
COc1ccc(CCNc2oc(COc3ccc(F)cc3)nc2C#N)cc1	active: 18.4 µM	
CC1CC(C)(C)CC2(C1)NC(=O)N(CC(=O)N1CCN(S(=O)(=O)c3cccc(F)c3)CC1)C2=O (configuration not stated)	inconclusive: 29.1 µM [inhibitor, partial curve]	
COc1ccc2c(c1OC)C(=O)N1C2SC(C)(C)[C@H]1C(=O)NCC(C)C (some centres not stated)	inactive	
COC(=O)N(NC(=O)C(O)(c1ccccc1)c1ccccc1)c1ccc(C)cc1	inconclusive: 29.1 µM [inhibitor, single point]	
COc1ccc(-c2noc(CN3CCCC(OCc4ccccn4)C3)n2)cc1 (configuration not stated)	active: 16.4 µM	
COc1cc2c(cc1OC)C(C)N(C(=O)c1ccc(Br)o1)CC2 (configuration not stated)	inconclusive: 20.6 µM [inhibitor, single point]	
Cc1ccc(S(=O)(=O)NC(C)(C)C)cc1C(=O)OC(C)C(=O)NC1CC1 (configuration not stated)	inactive	

SMILES	Potency	activity change, negative = growth inhibition
CCC(C)N1C(=O)S/C(=C/c2ccc3c(c2)n(C)c(=O)n3C)C1=O (configuration not stated)	active: 23.1 µM	
Cc1ccc(-c2noc(CSc3nnc(C)n3-c3ccc(F)cc3)n2)cc1	inactive	
Cc1cccc(C)c1NC(=O)CCS(=O)(=O)c1ccc2c(c1)n(C)c(=O)c(=O)n2C	inactive	
Cc1cccc(CN2C(=O)NC(c3ccccc3)(c3ccccc3)C2=O)c1	inconclusive: 18.4 µM [inhibitor, single point]	
Cc1ccc(CC2SC(=O)NC2=O)cc1Cl (configuration not stated)	inactive	
COC1CCN(Cc2cn(Cc3ccccc3)nc2-c2cc3ccccc3o2)CC1	inconclusive: 29.1 µM [inhibitor, single point]	
CCOc1cccc(NC(=O)C2CC(=O)N(C)C(=Nc3cccc(F)c3)S2)c1 (configuration not stated)	inconclusive: 29.1 µM [inhibitor, single point]	
CCN(C[C@H]1N[C@@](Cc2ccccc2)(C(=O)OC)[C@H]2C(=O)N(Cc3ccccc3)C(=O)[C@@H]12)S(=O)(=O)c1ccc(OC(F)(F)F)cc1	inconclusive: 29.1 µM [inhibitor, single point]	
O=C(c1cc(C(F)(F)F)cc(C(F)(F)F)c1)N1CCC2(CCCN(c3ccccn3)C2)CC1	inconclusive: 29.1 µM [inhibitor, single point]	
CC(=O)C1=C(C)OC(N)=C(C#N)C1c1cccc([N+](=O)[O-])c1 (configuration not stated)	inconclusive: 23.1 µM [inhibitor, single point]	
O=C(Nc1ccc(N2CCOCC2)cc1)c1ccc2ncsc2c1	inconclusive: 29.1 µM [inhibitor, single point]	
O=C(c1cccc(S(=O)(=O)N2CCc3ccccc32)c1)N1CCc2ccccc2C1	inconclusive: 23.1 µM [inhibitor, single point]	
O=C(c1cccc(C(=O)N(c2ccccn2)C2CCCCC2)c1)N(c1ccccn1)C1CCCCC1	active: 11.6 µM	
Cc1ccc(NC(=S)N(CCCN2CCOCC2)Cc2ccco2)cc1	inactive	
COc1ccc(-c2csc3nc(-c4ccc(F)cc4)oc(=O)c23)cc1OC	inconclusive: 18.4 µM [inhibitor, single point]	
CCOP(=O)(c1ccccc1)c1nc(-c2ccccc2Cl)oc1N1CCCCC1 (configuration not stated)	inconclusive: 23.1 µM [inhibitor, single point]	
O=C(CN1C2=NCCN2c2ccccc21)c1ccc2c(c1)OCO2	inconclusive: 29.1 µM [inhibitor, partial curve, poor fit]	
Cc1[nH]c(=O)[nH]c(=O)c1/C=N/NC(=O)[C@H](C)N	inactive	
C#Cc1ccccc1OCCCN1CCC(C(O)(c2ccccc2)c2ccccc2)CC1	active: 9.2 µM	
OCC1(CCOc2ccccc2)CCN(Cc2ccccc2OC(F)F)CC1	inactive	
O=C(c1ccco1)N1CCN(Cc2cccc(F)c2)CC1	inactive	
CCCNC(=O)COC(=O)c1ccccc1C(=O)c1ccc(Cl)c([N+](=O)[O-])c1	inconclusive: 29.1 µM [inhibitor, single point]	
O=C(Nc1nnc(Cc2ccc(Cl)cc2)s1)c1cccs1	inactive	
CCOC(=O)[C@@](C)(N)Cc1ccc(O)c(O)c1		inconclusive: -32.2% [inhibitor] [at 21.1 µM]

SMILES	Potency	activity change, negative = growth inhibition
O=C(O)c1ccc2c(c1)C(=O)/C(=C\c1ccco1)C2=O	inconclusive: 18.4 µM [inhibitor, partial curve]	
COc1ccccc1N1CCN(C(=O)C2Cc3ccccc3CN2C(=O)c2ccco2)CC1 (configuration not stated)	inconclusive: 32.6 µM [inhibitor, single point]	
Cc1ccccc1-n1ncc2c1CC(C)(C)CC2NC(=O)CCN1Cc2ccccc2C1=O (configuration not stated)	inconclusive: 18.4 µM [inhibitor, single point]	
CCOC(=O)c1c(C)[nH]c(C(=O)NNC(=O)c2ccc(C(C)(C)C)cc2)c1C	inconclusive: 20.6 µM [inhibitor, single point]	
COc1ccc(NC(=O)CS(=O)c2cccc(Cl)c2)cc1 (configuration not stated)	inactive	
N#C/C(=C\c1ccccc1[N+](=O)[O-])c1nc(C2CC2)cs1	inconclusive: 20.6 µM [inhibitor, single point]	
Cc1cccc(NC(=O)CS(=O)(=O)c2cn(CC(=O)N3CCOCC3)c3ccccc23)c1	active: 0.517 µM	
Cc1ccc(OCCCCN2CCc3ccccc3C2)c(C)c1	inconclusive: 5.17 µM [inhibitor, partial curve, poor fit]	
O=C(NCc1ccc(F)cc1)C(c1ccco1)N(C(=O)c1csnn1)C1CC1 (configuration not stated)	inactive	
CCN(CC)S(=O)(=O)c1ccc(O)c(NC(=O)c2cc(-c3cc(OC)c(OC)c(OC)c3)nc3ccccc23)c1	inconclusive: 29.1 µM [inhibitor, single point]	
Cc1ccc(-n2c(C)cc(C(=O)COC(=O)C3=NNC(=O)CC3)c2C)cc1	active: 16.4 µM	
COc1ccc(OC)c(NC(=O)CSc2nccn2-c2cc(C)cc(C)c2)c1	active: 14.6 µM	
OC[C@@H]1[C@@H](c2ccccc2)C(c2ccccc2)=NN1c1ccccc1	inconclusive: 23.1 µM [inhibitor, single point]	
COc1ccc(CN2C(=O)NC(C)(c3ccc(C)cc3)C2=O)cc1F (configuration not stated)	inconclusive: 23.1 µM [inhibitor, single point]	
Cc1ccc2nsnc2c1S(=O)(=O)N1CCN(Cc2ccc3c(c2)OCO3)CC1	inactive	
Cc1ccc(CCCOC(=O)CN2CCCCC2)cc1	inactive	
CCOC(=O)c1c(C)oc2ccc(OC(=O)N3CCOCC3)cc12		inconclusive: -32.3% [inhibitor]
N#Cc1c2c(c(-c3ccco3)[nH]c1=O)CCCC2	inconclusive: 29.1 µM [inhibitor, single point]	
Cc1ccc(-c2nc3ccccc3[nH]2)cc1NC(=O)COc1ccc(Cl)cc1Cl	active: 6.51 µM	
Cc1ccc(-c2[nH]n3c(=O)c4c(nc3c2C)CCCC4)cc1	inconclusive: 29.1 µM [inhibitor, single point]	
COCc1cc(/C=N\NC(=O)Cc2ccc(OC)cc2)ccc1OC	inactive	
Cc1cc(C)nc(NS(=O)(=O)c2ccc(N/C=C\C(=O)c3ccc(Cl)cc3)cc2)n1	inconclusive: 29.1 µM [inhibitor, single point]	
Cn1c(CCN2CCCC2)nc2cc(NS(=O)(=O)c3ccc(Cl)cc3)ccc21	inconclusive: 29.1 µM [inhibitor, single point]	
CCN(CC(=O)Nc1cccc(OC)c1)C(=O)c1cccc(S(=O)(=O)N2CCc3ccccc32)c1	active: 23.1 µM	
